# The list shows a part of the results.
# How the values were obtained:
# [1] = system: HSkMC (human skeletal muscle cells); assay: cytotoxicity call (relative viability < 0.9); settings: 10 µM
# [2] = system: HepG2; assay: cytotoxicity call (relative viability < 0.9); settings: 10 µM
# [3] = system: S. aureus RN4220; assay: growth inhibition call (relative growth <= 0.2); settings: 50 µM
Structure (SMILES),cytotoxicity call [1],cytotoxicity call [2],growth inhibition call [3]
O=C(C[C@@H]1C=C[C@@H](NC(=O)C2CC2)[C@@H](CO)O1)NCCCN1CCOCC1,inactive,inactive,inactive
O=C(C[C@H]1CC[C@H]2[C@@H](COC[C@@H](O)CN2S(=O)(=O)c2ccccc2)O1)N1CCOCC1,inactive,inactive,inactive
CC1Cc2ccccc2N1NC(=O)c1ccc(Cl)c(S(N)(=O)=O)c1 (centres undefined),inactive,inactive,inactive
CC(=O)O[C@@H]1[C@@H](O[C@@H]2O[C@H](CO)[C@@H](O)[C@H](O)[C@H]2O)[C@@H](O)[C@H](OC[C@H]2O[C@@H](Oc3c(-c4ccc(O)c(O)c4)oc4cc(O)cc(O)c4c3=O)[C@H](O)[C@@H](O)[C@H]2O)O[C@H]1C,inactive,active,inactive
C[C@@H]1CN([C@@H](C)CO)C(=O)c2cc(NC(=O)Cc3ccccc3)ccc2O[C@@H](C)CCCCO[C@H]1CN(C)Cc1ccc2c(c1)OCO2,inactive,inactive,inactive
COc1ccc(NC(=O)Nc2ccc3c(c2)C(=O)N([C@H](C)CO)C[C@@H](C)[C@@H](CN(C)C(=O)Nc2ccc4c(c2)OCO4)OCCCC[C@@H](C)O3)cc1,inactive,inactive,inactive
Cn1cnc(S(=O)(=O)N2C[C@@H](O)COC[C@H]3O[C@H](CC(=O)NC4Cc5ccccc5C4)CC[C@@H]32)c1,inactive,inactive,inactive
C[C@@H]1CN([C@H](C)CO)C(=O)CCCn2nncc2CO[C@H]1CN(C)Cc1ccc2c(c1)OCCN2C,inactive,inactive,inactive
CNC(=O)C[C@H]1CC[C@@H]2[C@H](COC[C@@H](O)CN2C(=O)c2ccc3c(c2)OCO3)O1,inactive,active,inactive
C[C@@H]1CCCCO[C@@H](CN(C)S(C)(=O)=O)[C@@H](C)CN([C@@H](C)CO)C(=O)c2cc(NS(C)(=O)=O)ccc2O1,inactive,inactive,inactive
COc1ccc(NC(=O)N(C)C[C@H]2OCCCC[C@@H](C)Oc3ccc(NS(=O)(=O)c4ccc(C)cc4)cc3C(=O)N([C@@H](C)CO)C[C@@H]2C)cc1,inactive,inactive,inactive
CC(C)NC(=O)Nc1ccc2c(c1)C(=O)N([C@@H](C)CO)C[C@@H](C)[C@H](CN(C)Cc1ccc(C(F)(F)F)cc1)OCCCC[C@@H](C)O2,inactive,inactive,inactive
COc1ccc(NC(=O)Nc2ccc3c(c2)C(=O)N([C@H](C)CO)C[C@H](C)[C@@H](CN(C)C(=O)NC(C)C)OCCCC[C@@H](C)O3)cc1,inactive,inactive,inactive
O=C1CCOCC1,inactive,inactive,inactive
Cc1ccc(S(=O)(=O)Nc2ccc3c(c2)C(=O)N([C@@H](C)CO)C[C@H](C)[C@H](CN(C)C(=O)Nc2cccc4ccccc24)OCCCC[C@@H](C)O3)cc1,inactive,inactive,inactive
COc1ccc(CN(C)C[C@H]2OCCCC[C@H](C)Oc3ccc(NS(=O)(=O)c4ccc(C)cc4)cc3C(=O)N([C@@H](C)CO)C[C@H]2C)cc1,inactive,inactive,inactive
C[C@H]1CN([C@@H](C)CO)S(=O)(=O)c2ccc(-c3ccncc3)cc2O[C@H]1CN(C)Cc1ccc(Oc2ccccc2)cc1,inactive,inactive,inactive
Cc1ccc(S(=O)(=O)N(C)C[C@H]2OCCCC[C@@H](C)Oc3ccc(NC(=O)Nc4c(C)noc4C)cc3C(=O)N([C@@H](C)CO)C[C@H]2C)cc1,inactive,inactive,inactive
C[C@@H]1CCCCO[C@H](CN(C)C(=O)Nc2cccc3ccccc23)[C@@H](C)CN([C@@H](C)CO)C(=O)c2cc(NS(=O)(=O)c3ccccc3)ccc2O1,inactive,inactive,inactive
C=CCN1C(=O)[C@@]2(O[C@@H](CCO)[C@H]([Si](C)(C)c3ccc(OC)cc3)[C@H]2C)c2cc(N3C(=O)c4cccc5cccc3c45)ccc21,active,active,inactive
Nc1ncnc2c1c(I)cn2[C@@H]1O[C@H](CO)[C@@H](O)[C@H]1O,inactive,active,inactive
C[C@@H]1CCCCO[C@H](CN(C)C(=O)NC2CCCCC2)[C@H](C)CN([C@H](C)CO)C(=O)c2cc(NC(=O)NC3CCCCC3)ccc2O1,inactive,active,inactive
C[C@@H]1CN([C@H](C)CO)C(=O)Cc2cc(NC(=O)C3CC3)ccc2O[C@@H]1CN(C)Cc1ccc(C(=O)O)cc1,inactive,inactive,inactive
COc1ccc(S(=O)(=O)Nc2cccc3c2O[C@@H](CN(C)S(=O)(=O)c2ccc(OC)cc2)[C@@H](C)CN([C@H](C)CO)C3=O)cc1,inactive,inactive,inactive
COc1ccc(CN(C)C[C@H]2OCCCC[C@H](C)Oc3ccc(NC(=O)NC4CCCCC4)cc3C(=O)N([C@H](C)CO)C[C@H]2C)cc1,inactive,inactive,inactive
O=C(/C=C/c1cc2c(cc1Br)OCCO2)c1c(-c2ccccc2)c2cc(Cl)ccc2[nH]c1=O,active,active,inactive
Cn1nc(CNc2ncccn2)c2c1CNCC2,inactive,inactive,inactive

Structure (SMILES),cytotoxicity call [1],cytotoxicity call [2],growth inhibition call [3]
Cc1ccc(S(=O)(=O)Nc2ccc3c(c2)C(=O)N([C@H](C)CO)C[C@@H](C)[C@@H](CN(C)S(=O)(=O)c2ccc(C)cc2)OCCCC[C@@H](C)O3)cc1,inactive,inactive,inactive
COc1ccc(S(=O)(=O)N(C)C[C@@H]2Oc3c(NS(=O)(=O)c4c(C)noc4C)cccc3C(=O)N([C@@H](C)CO)C[C@@H]2C)cc1,inactive,inactive,inactive
C[C@@H]1CN([C@@H](C)CO)C(=O)c2cc(NC(=O)Nc3ccc(C(F)(F)F)cc3)ccc2O[C@@H](C)CCCCO[C@H]1CN(C)S(=O)(=O)c1cn(C)cn1,inactive,inactive,inactive
C[C@H](CO)N1C[C@H](C)[C@H](CN(C)C(=O)Nc2cccc(C(F)(F)F)c2)OCc2ccccc2-c2ccccc2C1=O,inactive,inactive,inactive
O=C1c2ccccc2[C@@]2(Cc3ccccc3N(CCN3CCOCC3)C2=O)[C@H](c2ccc(CO)cc2)N1Cc1ccccc1Cl,inactive,inactive,inactive
C[C@H]1CCCCO[C@H](CN(C)C(=O)Nc2cccc3ccccc23)[C@@H](C)CN([C@@H](C)CO)C(=O)c2cc(NC(=O)CCCN(C)C)ccc2O1,inactive,inactive,inactive
C[C@@H]1CN([C@H](C)CO)C(=O)Cc2cc(NS(=O)(=O)c3cn(C)cn3)ccc2O[C@@H]1CN(C)Cc1ccccc1,inactive,inactive,inactive
C[C@]12C=C[C@]3(CN(C4CC4)C(=O)C3[C@@H]1C(=O)O)O2 (some centres undefined),inactive,inactive,inactive
C[C@H]1CCCCO[C@H](CN(C)C(=O)C2CCCCC2)[C@@H](C)CN([C@@H](C)CO)C(=O)c2cc(NS(=O)(=O)c3cccs3)ccc2O1,inactive,inactive,inactive
C[C@@H]1CN([C@@H](C)CO)C(=O)c2cc(NC(=O)CCN3CCOCC3)ccc2O[C@@H]1CN(C)C(=O)Nc1ccc(F)cc1,inactive,inactive,inactive
C[C@@H]1CN([C@H](C)CO)C(=O)c2cc(N(C)C)ccc2O[C@H]1CN(C)S(C)(=O)=O,inactive,inactive,inactive
COCC(=O)N(C)C[C@H]1Oc2cc(C#C[C@H](C)O)ccc2S(=O)(=O)N([C@H](C)CO)C[C@H]1C,inactive,inactive,inactive
C=CCSCC1Nc2cc(Cl)c(S(N)(=O)=O)cc2S(=O)(=O)N1 (centres undefined),inactive,inactive,inactive
NC(=O)NCCCC(=O)O,inactive,inactive,inactive
C[C@@H]1CN([C@H](C)CO)C(=O)c2cc(NC(=O)c3ccncc3)ccc2O[C@H]1CN(C)S(=O)(=O)c1cn(C)cn1,inactive,inactive,inactive
COc1ccc(NC(=O)Nc2ccc3c(c2)C(=O)N([C@@H](C)CO)C[C@@H](C)[C@@H](CN(C)Cc2ccncc2)OCCCC[C@H](C)O3)cc1,inactive,inactive,inactive
CSc1nc(C)nc2ccccc12,inactive,inactive,inactive
COc1ccc(S(=O)(=O)N(C)C[C@@H]2OCCCC[C@H](C)Oc3ccc(NC(=O)Nc4ccc(C(F)(F)F)cc4)cc3C(=O)N([C@H](C)CO)C[C@@H]2C)cc1,inactive,inactive,inactive
CCN(CCCCOC(=O)c1ccc(OC)c(OC)c1)C(C)Cc1ccc(OC)cc1.Cl (centres undefined),inactive,active,inactive
C[C@@H]1CN([C@H](C)CO)C(=O)Cc2cc(NC(=O)C3CCCCC3)ccc2O[C@@H]1CN(C)Cc1ccc(-c2ccccc2)cc1,active,active,inactive
Cc1noc(C)c1NC(=O)N(C)C[C@@H]1Oc2ccc(NC(=O)Nc3cccc4ccccc34)cc2C(=O)N([C@H](C)CO)C[C@H]1C,inactive,inactive,inactive
Cc1noc(C)c1NC(=O)Nc1ccc2c(c1)C(=O)N([C@@H](C)CO)C[C@H](C)[C@@H](CN(C)S(=O)(=O)c1ccccc1)OCCCC[C@@H](C)O2,inactive,inactive,inactive
C[C@@H]1CN([C@H](C)CO)S(=O)(=O)c2ccc(Br)cc2O[C@H]1CN(C)C(=O)Nc1ccccc1,inactive,inactive,inactive
C[C@@H]1O[C@@H](O[C@@H]2[C@@H](O)[C@H](OCCc3ccc(O)c(O)c3)O[C@H](CO)[C@H]2O)[C@H](O)[C@H](O)[C@H]1O,inactive,inactive,inactive
COc1cccc(S(=O)(=O)N(C)C[C@H]2Oc3cc(C4=CCCC4)ccc3S(=O)(=O)N([C@@H](C)CO)C[C@H]2C)c1,inactive,inactive,inactive
COc1ccc(S(=O)(=O)N(C)C[C@H]2OCCCC[C@H](C)Oc3ccc(NS(=O)(=O)c4cn(C)cn4)cc3C(=O)N([C@H](C)CO)C[C@@H]2C)cc1,inactive,inactive,inactive

# — the antibiotic and cytotoxicity screens of Wong et al. (2023)
